Drawing on the antibiotic and cytotoxicity screens of Wong et al. (2023), this text covers cytotoxicity call for 26 compounds.

Some of the results follow.

The subject of this assay is HepG2. Description: cytotoxicity call (relative viability < 0.9). The settings on record: 10 µM.
As to `O=C(C[C@H]1CC=CCC[C@@H](Cc2ccc(F)cc2)C(=O)OC[C@H](Cc2ccccc2)NC1=O)NCCO`, the cytotoxicity call was “inactive”.
Next, `C[C@@H]1CCCCO[C@H](CN(C)Cc2ccc(C(F)(F)F)cc2)[C@@H](C)CN([C@H](C)CO)C(=O)c2cc(NC(=O)c3ccccc3)ccc2O1`: “inactive”; `COc1ccccc1CN(C)C[C@@H]1OCc2ccccc2-c2c(n(C)c3ccccc23)C(=O)N([C@@H](C)CO)C[C@@H]1C`: “inactive”; `CCCNC(=O)N(C)C[C@H]1Oc2cc(C#Cc3ccccn3)ccc2S(=O)(=O)N([C@H](C)CO)C[C@@H]1C`: “inactive”.
Under `C[C@@H]1CN([C@H](C)CO)C(=O)CCCn2nncc2CO[C@H]1CN(C)C(=O)Nc1ccccc1C(F)(F)F` stands “active”.
Under `O=C(C[C@H]1C[C@H]2c3cc(NS(=O)(=O)c4ccccc4)ccc3O[C@H]2[C@H](CO)O1)NCC(F)(F)F` stands “inactive”; under `CC[C@H]1OC(=O)[C@H](C)[C@@H](O[C@H]2C[C@@](C)(OC)[C@@H](O)[C@H](C)O2)[C@H](C)[C@@H](O[C@@H]2O[C@H](C)C[C@H](N(C)C)[C@H]2O)[C@](C)(O)C[C@@H](C)C(=O)[C@H](C)[C@@H](O)[C@]1(C)O`, “active”.
As to `C[C@H](CO)N1C[C@H](C)[C@H](CN(C)Cc2ccc(-c3ccccc3)cc2)Oc2ccc(NC(=O)CCC(F)(F)F)cc2CC1=O`, the cytotoxicity call is “inactive”.
On to `C[C@@H]1CCCCO[C@@H](CN(C)C(=O)C2CCCCC2)[C@@H](C)CN([C@@H](C)CO)C(=O)c2cc(NC(=O)Nc3ccc(C(F)(F)F)cc3)ccc2O1`, for which the cytotoxicity call was “inactive”.
Next, `COc1ccc(S(=O)(=O)N(C)C[C@@H]2OCCCC[C@H](C)Oc3ccc(NS(=O)(=O)c4ccc(Cl)cc4)cc3C(=O)N([C@@H](C)CO)C[C@H]2C)cc1`: “inactive”; `C[C@@H]1CCCCO[C@@H](CN(C)CC2CCCCC2)[C@H](C)CN([C@@H](C)CO)C(=O)c2cc(NS(=O)(=O)c3cccs3)ccc2O1`: “inactive”.
Next, `CO[C@@H]1CN(C)C(=O)c2cc(NC(=O)Nc3ccc4c(c3)OCO4)ccc2OC[C@@H](C)N(C(C)=O)C[C@H]1C`: “inactive”; `Cc1cc(C(=O)Nc2cccc3c2O[C@@H](CN(C)S(C)(=O)=O)[C@@H](C)CN([C@@H](C)CO)C3=O)n(C)n1`: “inactive”; `COc1ccc(NC(=O)Nc2ccc3c(c2)C(=O)N([C@H](C)CO)C[C@H](C)[C@@H](CN(C)C(=O)Nc2cccc4ccccc24)OCCCC[C@H](C)O3)cc1`: “inactive”.
Under `C[C@H]1CN([C@@H](C)CO)C(=O)c2cccc(NC(=O)Nc3ccc(C(F)(F)F)cc3)c2O[C@H]1CN(C)Cc1ccc(Cl)c(Cl)c1` stands “inactive”; under `COCC(=O)Nc1ccc2c(c1)OC[C@@H](C)N(C(=O)Cc1ccccn1)C[C@@H](C)[C@@H](OC)CN(C)C2=O`, “inactive”.
For the compound `COC(=O)C(CC#Cc1ccc2c(c1)[C@]1(C(=O)N2)[C@H](c2ccc(O)cc2)N2[C@H](c3ccccc3)[C@H](c3ccccc3)OC(=O)[C@H]2[C@@H]1C(=O)NC[C@H](O)c1ccccc1)C(=O)OC`, the cytotoxicity call was “inactive”.
For `COc1ccc(S(=O)(=O)N(C)C[C@H]2Oc3ccc(NC(=O)Cn4cnnn4)cc3CC(=O)N([C@@H](C)CO)C[C@@H]2C)cc1`, the cytotoxicity call was “inactive”.
Under `O=C(O)C1=CO[C@@H](O[C@@H]2O[C@H](CO)[C@@H](O)[C@H](O)[C@H]2O)[C@@H]2C(CO)=CC[C@H]12` stands “inactive”; under `Cc1ccc(S(=O)(=O)Nc2ccc3c(c2)C(=O)N([C@@H](C)CO)C[C@@H](C)[C@H](CN(C)C(=O)CCC(F)(F)F)OCCCC[C@H](C)O3)cc1`, “inactive”.
Next, `C[C@@H]1CN([C@@H](C)CO)C(=O)c2cc(NC(=O)Nc3cccc4ccccc34)ccc2O[C@@H](C)CCCCO[C@@H]1CN(C)Cc1ccccc1`: “active”.
`Cc1ccc(S(=O)(=O)N(C)C[C@H]2Oc3ncc(-c4ccncc4)cc3C(=O)N([C@@H](C)CO)C[C@H]2C)cc1`: the cytotoxicity call is “inactive”.
Under `C[C@@H]1CN([C@@H](C)CO)C(=O)c2cc(NC(=O)c3ccccc3)ccc2O[C@@H](C)CCCCO[C@@H]1CN(C)C(=O)Nc1ccccc1` stands “inactive”; under `CC(=O)Oc1ccc2c(C)cc(=O)oc2c1`, “inactive”.
Next, `CC=Cc1ccc2n(c1=O)C[C@H]1[C@H](CO)[C@@H](C(=O)NC3CCC3)N(S(C)(=O)=O)[C@@H]21`: “inactive”.
Under `Cc1noc(C)c1S(=O)(=O)N(C)C[C@H]1Oc2ccc(NC(=O)Cn3cnnn3)cc2CC(=O)N([C@H](C)CO)C[C@H]1C` stands “inactive”.
